The record followed here is PubChem BioAssay AID1159614 (National Center for Advancing Translational Sciences (NCATS), 2016).

Out of some 45,000 compounds screened, about 65 (0.1%) were called active. Calls follow the shape of the dose curve; as a rule, active = well fitted activation curve with a large enough effect; inconclusive = small, poorly fitted or top-dose-only effect; inactive = no such curve, though single readings can be large or run the other way. The list shows a part of the results.
Potency is read from the fitted curve at half-maximal effect.

The target in this assay is Galactocerebrosidase (Homo sapiens) (UniProt P54803). Briefly: A Novel Cell-Based Assay to Identify Small Molecules for B -Galactocerebrosidase. Also: nearly all actives have a fitted effect of over 65% in size. As to activation: 0% is about no effect. As to conditions: 145M-Twi-hGALC-G270D cells (Twitcher mouse brain line with human GALC G270D), HMU-beta-Gal fluorescence, 48 h; series mostly up to 57.5 µM; activation: at the top concentration. The method in brief: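 Fluorescence readout: HMU-β-gal cleavage by mutant GALC (0.1 mM final, citrate/phosphate pH 5.2 with 1 mg/mL taurocholate), stopped with carbonate/bicarbonate plus Triton X-100. Cells: murine Twitcher 145M-Twi expressing human G270D GALC; qHTS for activators.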
UniProt P54803, sequence (P54803 whole entry, looked up): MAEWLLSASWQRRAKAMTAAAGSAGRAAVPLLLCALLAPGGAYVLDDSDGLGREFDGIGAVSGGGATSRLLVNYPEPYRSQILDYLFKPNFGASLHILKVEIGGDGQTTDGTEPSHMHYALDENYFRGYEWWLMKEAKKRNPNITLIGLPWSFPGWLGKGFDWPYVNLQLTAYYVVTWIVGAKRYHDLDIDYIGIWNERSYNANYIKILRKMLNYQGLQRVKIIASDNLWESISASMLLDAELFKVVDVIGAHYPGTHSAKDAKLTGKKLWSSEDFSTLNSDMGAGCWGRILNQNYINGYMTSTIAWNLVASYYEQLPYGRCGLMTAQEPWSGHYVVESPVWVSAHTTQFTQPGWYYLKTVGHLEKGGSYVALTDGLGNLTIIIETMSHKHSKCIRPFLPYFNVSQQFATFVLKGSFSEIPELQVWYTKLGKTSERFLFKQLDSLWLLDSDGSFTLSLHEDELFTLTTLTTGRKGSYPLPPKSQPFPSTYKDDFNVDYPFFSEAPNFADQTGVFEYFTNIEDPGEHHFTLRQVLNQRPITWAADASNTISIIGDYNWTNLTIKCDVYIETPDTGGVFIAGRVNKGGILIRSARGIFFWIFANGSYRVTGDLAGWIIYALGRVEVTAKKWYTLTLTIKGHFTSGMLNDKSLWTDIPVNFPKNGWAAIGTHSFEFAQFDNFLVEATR
Turning to `COc1ccc(Nc2oc(-c3ccc(COc4cccc(C)c4)o3)nc2C#N)cc1`, the “activation” value is inactive: -4.31%.

Turning to `COC(=O)c1cc(NC(=O)CCc2c(C)nc3c(c(C)nn3C(C)(C)C)c2C)cc(C(=O)OC)c1`, the “activation” value is inactive: -7.26%.

On to `Cc1ccc(C(=O)N(Cc2ccco2)Cc2sccc2C)cc1`, for which the “activation” value is inactive: 7.16%.

As for `COc1ccc(-c2nc3c(c(SCC(=O)Nc4cccc(O)c4)n2)Cc2c(CO)cnc(C)c2O3)cc1`, the “activation” value is inactive: -3.92%.

In the case of `O=C(NCc1ccc(Cl)cc1)c1cc2c(s1)-c1ccccc1SC2`, the “activation” value is inactive: -6.83%.

In the case of `O=C(COc1ccccc1F)Nc1ccccc1C(=O)OCc1cc(=O)n2nc(C3CC3)sc2n1`, the “activation” value is inactive: 6.31%.

Turning to `CC1CCc2onc(C(=O)N3CCN(c4ccccc4)CC3)c2C1` (stereo unspecified), the “activation” value is inactive: -1.99%.

`O=C(Nc1cc(Cl)ccc1Cl)c1cc(S(=O)(=O)NCCc2ccccc2)ccc1F`: the “activation” value was inactive: -18.6%.

Regarding `Cc1ccc(CN2COc3ccc4c(C)cc(=O)oc4c3C2)cc1`, the Potency was active: 25.1 µM.

Consider `Cc1nc(N2CCOCC2)c2c(C(=O)N3CCN(c4ccccc4F)CC3)c(C)oc2n1`, for which the “activation” value is inactive: 3.03%.

On to `Cc1ccc(N2C(=O)CC(c3ccccc3F)C3=C2COC3=O)cc1Cl` (stereo unspecified), for which the “activation” value was inactive: -5.49%.

With `c1ccc(-c2nc[nH]c2-c2ccccc2)cc1`, the “activation” value is inactive: -15.9%.

As for `CCc1ccc(NC(=O)C2CCN(c3nn4cc(-c5ccc(OC)cc5)nc4s3)CC2)cc1`, the “activation” value was inactive: -7.58%.

In the case of `CCCCCCCC(=O)OCC(O)CO` (stereo unspecified), the “activation” value was inactive: -6.95%.

As for `CCc1ccccc1NC(=O)Cn1c(=O)n(Cc2ccco2)c(=O)c2ccccc21`, the “activation” value was inactive: -10.3%.

For the compound `COc1ccc(-c2c(C#N)c(SCC(=O)Nc3cccc(Cl)c3)nc(C)c2C(=O)Nc2ccccc2)cc1OC`, the “activation” value is inactive: -20.6%.

Consider `CCc1nnc2c(N3CCN(c4cccc(C)c4)C(C)C3)nc3ccccc3n12` (stereo unspecified), for which the “activation” value is inactive: -12.2%.

With `Cc1cccc(S(=O)(=O)Nc2cccc(-c3ccc(N4CCCCC4)nn3)c2)c1`, the “activation” value was inactive: -26.1%.

For `CCN(CC)C(=O)Cn1c(=O)n(-c2ccc(Cl)c(Cl)c2)c(=O)c2c(C)c(C(=O)N(CC)CC)sc21`, the “activation” value is inactive: -9.18%.

As for `COc1cccc(Cc2nc3ccccc3nc2SCC(=O)NCCc2ccccc2)c1`, the “activation” value was inactive: -10%.

Regarding `COc1ccc(NC(=O)c2ccc3c(c2)N(Cc2cccc(Cl)c2)C(=O)c2ccccc2S3=O)cc1Cl` (stereo unspecified), the “activation” value is inactive: -7.18%.

For the compound `CC1CCN(c2nc3c(S(=O)(=O)c4ccccc4)nnn3c3ccc(Cl)cc23)CC1`, the “activation” value was inactive: -3.03%.

Consider `COc1ccc(C2C=C(c3ccc(F)cc3)Nc3nc(-c4ccc(Cl)cc4)nn32)cc1` (stereo unspecified), for which the “activation” value is inactive: -9.78%.

As to `CCc1ccc(NC(=O)CCn2c(-c3ccc(OC)cc3)cc(C(C)=O)c2C)cc1`, the “activation” value is inactive: -8.91%.

`COc1ccc(-n2nc3c(N4CCC(C(=O)NCc5cccc(F)c5)CC4)nnc(C)c3c2C)cc1`: the “activation” value was inactive: 4.26%.

On to `CC(=O)c1cccc(NC(=O)CN2C(=O)c3ccccc3Sc3ncccc32)c1`, for which the “activation” value was inactive: -8.24%.
